Each structure is given as a SMILES string. About 14,000 (4.5%) of roughly 310,000 compounds showed an effect of 50% or more. Effects have a minus sign here. This is one part of the list.
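Further: peak tail current of the secondary pulse compared with the same well before compound.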

The target in the assay is human ether-à-go-go-related gene (hERG) potassium channel (human, UniProt Q12809). Nature of the assay: primary screen, population patch clamp on CHO cells stably expressing hERG.
Sequence of human ether-à-go-go-related gene (hERG) potassium channel (Q12809 whole entry, looked up): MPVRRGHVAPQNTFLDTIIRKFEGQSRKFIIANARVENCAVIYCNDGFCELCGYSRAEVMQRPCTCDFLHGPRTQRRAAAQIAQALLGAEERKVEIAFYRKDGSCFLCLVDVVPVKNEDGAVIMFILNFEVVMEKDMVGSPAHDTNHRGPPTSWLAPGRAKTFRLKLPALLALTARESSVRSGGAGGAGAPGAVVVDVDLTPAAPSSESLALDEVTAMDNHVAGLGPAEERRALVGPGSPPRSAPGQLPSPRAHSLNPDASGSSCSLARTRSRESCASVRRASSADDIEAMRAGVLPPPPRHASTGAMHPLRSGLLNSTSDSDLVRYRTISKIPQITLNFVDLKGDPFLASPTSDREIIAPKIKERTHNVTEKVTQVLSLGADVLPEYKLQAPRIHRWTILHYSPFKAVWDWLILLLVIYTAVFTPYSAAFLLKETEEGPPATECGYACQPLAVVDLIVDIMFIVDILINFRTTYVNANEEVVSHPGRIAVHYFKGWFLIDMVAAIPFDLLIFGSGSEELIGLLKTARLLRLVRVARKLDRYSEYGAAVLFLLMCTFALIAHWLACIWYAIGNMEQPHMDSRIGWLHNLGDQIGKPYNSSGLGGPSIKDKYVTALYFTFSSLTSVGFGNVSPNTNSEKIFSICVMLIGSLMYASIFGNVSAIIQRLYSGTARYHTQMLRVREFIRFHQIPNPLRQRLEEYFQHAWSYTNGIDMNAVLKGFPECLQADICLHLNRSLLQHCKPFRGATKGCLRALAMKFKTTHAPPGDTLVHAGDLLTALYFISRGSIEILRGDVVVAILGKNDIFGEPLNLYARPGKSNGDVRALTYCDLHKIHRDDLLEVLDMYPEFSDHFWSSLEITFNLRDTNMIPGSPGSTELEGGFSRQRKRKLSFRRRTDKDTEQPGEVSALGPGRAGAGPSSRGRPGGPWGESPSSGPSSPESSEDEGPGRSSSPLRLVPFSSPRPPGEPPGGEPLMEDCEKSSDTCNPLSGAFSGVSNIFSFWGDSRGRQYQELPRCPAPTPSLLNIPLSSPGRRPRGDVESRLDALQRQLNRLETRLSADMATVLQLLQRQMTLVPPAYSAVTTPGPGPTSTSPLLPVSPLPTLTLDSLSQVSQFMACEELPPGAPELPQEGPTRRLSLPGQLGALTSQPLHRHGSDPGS
For `COC(=O)COc1ccc(Oc2nc(SC)nc(N(C)C)n2)nn1`, the “hERG current change (%, negative = inhibition) at 10uM” value is on record as -26.8%.
With `CCS(=O)(=O)Nc1ccc(-c2nnc(SCC(=O)OC)o2)cc1`, the “hERG current change (%, negative = inhibition) at 10uM” value is on record as -6.99%.
In the case of `COc1ccc(-c2noc(CSc3nnc(-c4ccncc4)n3-c3ccc(F)cc3)n2)cc1OC`, the “hERG current change (%, negative = inhibition) at 10uM” value came out at 0.121%.
The same measure for `CC(NC(=O)C1CC12CCC2)c1ccccc1` (stereo not drawn): 11.8%.
The same measure for `Cc1ccccc1-c1nnc(Cc2ccccc2)o1`: -17.9%; for `O=C(NCCNc1ccc([N+](=O)[O-])cc1)c1ccccc1Br`: -43.3%; for `CC(O)[C@H]1CNCCN1CC1(c2ccccc2)CC1` (stereo partly drawn): 5.46%.
The same measure for `O=S(=O)(NCC(c1cccnc1)N1CCOCC1)c1ccc(Cl)cc1` (stereo not drawn): 4.89%; for `COCCN(C(=O)C1CC1)c1nnc(-c2cccc(C)c2)s1`: -6.82%.
For `C=CCn1c(SCC(=O)NC(=O)c2cccc([N+](=O)[O-])c2)nnc1-c1ccccc1`, the “hERG current change (%, negative = inhibition) at 10uM” value was -10.9%.
The same measure for `CN(C)CCn1c(C(=O)Nc2ccccc2)cc2ccccc21.Cl`: -58.9%; for `CCC(C(=O)Nc1ccc(OC)c(Cl)c1)c1ccccc1` (stereo not drawn): -2.24%; for `O=C(CN1C(=O)NC(Cc2ccccc2)C1=O)Nc1ccc(OC(F)(F)F)cc1` (stereo not drawn): -13.9%.
Take `Cc1cc(C)nc(OC(=O)c2c(Cl)cc(Cl)cc2Cl)n1`: the “hERG current change (%, negative = inhibition) at 10uM” value stood at 9.64%.
With `C=CCN(CC=C)C(=O)c1ccccc1NC(=O)c1ccccc1C` the figure was 13.3%.
With `CCc1ccc(CNC(=O)CC2C(=O)NCCN2Cc2ccccc2F)nc1` (stereo not drawn) the figure was 1.14%; with `O=S1(=O)CCO[C@H]2Cc3ccccc3[C@H]2N1Cc1ccccc1Br`, -5.31%.
The same measure for `Cc1ccc(CN2CCN(C3CSCCSC3)CC2CCO)cc1` (stereo not drawn): -41.9%.
With `Cc1ccc2c(c1)C(=O)CC1(CCC(C(C)(C)C)CC1)O2` (stereo not drawn), the “hERG current change (%, negative = inhibition) at 10uM” value is recorded as 22.7%.
The same measure for `Cc1cc(=O)c2c([nH]1)c(C)cc1[nH]c(C)c(C)c12`: 3.42%.
The same measure for `Cc1cc(C=O)c(C)n1C1CC1`: 8.18%; for `COC(=O)[C@H](Cc1ccccc1)NC(=O)NCc1ccccc1OC`: 12.2%.
The same measure for `NC(N)=NC(=O)c1nc(Cl)c(N)nc1N`: -3.88%; for `O=C(Nc1cccc(Br)c1)c1ccc2c(c1)SC1=NS(=O)(=O)CCN12`: -7.96%.
In the case of `Cc1ccc(-c2nn(-c3ccccc3)c3[nH]c(=O)c(CNCc4ccccc4)cc23)cc1`, the “hERG current change (%, negative = inhibition) at 10uM” value is reported as 21.1%.
With `COc1cc2c(cc1OC)C(c1ccco1)CC(=O)N2` (stereo not drawn) the figure was 3.25%; with `COC(=O)c1oc2c(c1C)C(=O)CC(C)(C)C2`, 15.8%.
With `COC(=O)C1=C(C)N(CCCC(=O)O)C(=O)NC1c1ccccc1OS(=O)(=O)c1ccccc1[N+](=O)[O-]` (stereo not drawn) the figure was 15.3%; with `Cc1nc(N2CCN(C)CC2)c2c(C)c(C(=O)Nc3ccc(F)cc3)sc2n1`, -47.9%; with `O=c1cc(N2CCN(c3ccccc3F)CC2)[nH]c(=O)n1-c1ccc(Br)cc1`, -16.7%.
With `O=C(CCCOc1ccccc1)N1CCN(S(=O)(=O)c2ccc(Cl)cc2)CC1` the figure was 20.9%; with `COc1ccc(C(=O)Nc2ccc(N3CCN(C(=O)c4cccs4)CC3)cc2)cc1Br`, -47.2%; with `Cc1ccccc1NC(=S)NCc1ccccc1`, -7.65%.
For `COc1cccc(NC(=O)Nc2ccccc2SC)c1`, the “hERG current change (%, negative = inhibition) at 10uM” value was -3.85%.
As for `COc1cc(OC)c(CN2CCC(Cc3ccccc3)CC2)cc1Br`, the “hERG current change (%, negative = inhibition) at 10uM” value is given as -70.9%.
With `CN=C1c2c(-c3ccccc3)c3cc(OC)ccc3n2CCN1C.Cl` the figure was -62.6%.
With `Cc1csc(-c2cnn(-c3ccccc3)c2NC(=O)c2cccc(F)c2)n1` the figure was -1.49%.
In the case of `O=C(NCc1ccccc1Cl)C1CCN(S(=O)(=O)c2ccc(F)cc2)CC1`, the “hERG current change (%, negative = inhibition) at 10uM” value was -45.6%.
Take `Cc1cccc2nc(CSCc3ccco3)cn12`: the “hERG current change (%, negative = inhibition) at 10uM” value is -2.01%.
With `Cc1ccc(NC(=O)CCn2c(=O)oc3ccccc32)cc1` the figure was -3.19%; with `CCc1c(O)nc(SCC(=O)Nc2ccccc2OC)n(-c2ccccc2C)c1=O`, -6.05%; with `O=C(CN(C(=O)Cn1nnc(-c2ccccc2F)n1)c1cccc2c1CCCC2)NCc1ccccc1`, 9.51%.
For `COc1cc(C)c(Br)cc1S(=O)(=O)NCc1ccccc1`, the “hERG current change (%, negative = inhibition) at 10uM” value was found to be 12.9%.
With `CN1CCN(CCCNC(=O)c2ccc3c(c2)N(Cc2ccccc2)CCS3)CC1` the figure was -23.6%; with `COc1ccc(N2CC(C(=O)N/N=C/c3ccccc3)CC2=O)cc1` (stereo not drawn), -33.1%.

The record behind these values is PMC4336329 (PLoS ONE, 2015).
